Measurements from the supplement of paper PMC11417369.
The list shows a part of the results.

Each sequence was assayed on PfAP2-HC AP2 domain (GST-tagged) (assay: gcPBM binding intensity (ln(normalized median fluorescence intensity)); higher = stronger DNA binding).
How it was run: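 Plasmodium falciparum DNA-binding domains carrying a GST tag were expressed in E. coli and applied for 1 h, at about 25 μg on average, to an Agilent 4 × 180k array. The array held primer-extended double-stranded 36-bp intergenic genomic probes together with negative controls, and binding took place in 1× PBS with 1% milk, 0.2 mg/ml BSA, 0.5% salmon testes DNA and 0.03% Triton X-100. An Alexa488 anti-GST antibody detected bound protein, and the array was scanned at 488 nm. Binding intensity is taken as the highest Masliner-normalised natural-log median intensity across replicate spots of either probe orientation.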
For “AAAATTAAACAAAGTTGTACAAAATAATAATAAAAG [XGTACX_site7515]”, the “gcPBM binding intensity (ln)” value was 10.2. “TATGTATATTATATGACACACATTTATATATATATA [CACACA_site1167]” was tested, and the “gcPBM binding intensity (ln)” value was 9.72. For “AATAAATAAATAAATATATATATATATATATATATG [CACACA_negctrl_site899]”, the “gcPBM binding intensity (ln)” value was 9.71. In the case of “TTTTGTTGATTTATATCTGTAGGGTTTAATATAACA [XGTACX_negctrl_site174]”, the “gcPBM binding intensity (ln)” value is reported as 9.51. For “AAAAAGGATAAACACACACACACACCGATATATATA [CACACA_site8206]”, the “gcPBM binding intensity (ln)” value was 11. For TTATTTTTGTGTAAGGTGCTATATATAATGTTTTTA, the “gcPBM binding intensity (ln)” value was 9.87. With “AAATGTGATATAAGTACACACACATATGTATATATA [CACACA_site8539]” the “gcPBM binding intensity (ln)” value was 10.1. For “AACGAAATCATCAAGTGTACTAGTTTATTATTAATA [XGTACX_site6161]”, the “gcPBM binding intensity (ln)” value was 9.63. “CCATGTCACAATTTTTCACACACAAAATTTATATAC [CACACA_site8628]” was tested, and the “gcPBM binding intensity (ln)” value was 10.4. For “TAATTAACAAACTATAGTACACAAAATACTTCATAT [XGTACX_site6375]”, the “gcPBM binding intensity (ln)” value was 9.7. In the case of “ATATACACACATAAGTGTACTTATATTTCATATATA [XGTACX_site8646]”, the “gcPBM binding intensity (ln)” value is reported as 9.82. For “AAAATAAAATAAAACACAAAAAAATAAAACAAAATA [CACACA_negctrl_site16]”, the “gcPBM binding intensity (ln)” value was 9.78. “TATATATCCATGTGTACACACAAAAAAAAATAAAGT [CACACA_site7107]” was tested, and the “gcPBM binding intensity (ln)” value was 10.2. With “AAATATGTTTATATATGTACTTATAATTCAAAATAT [XGTACX_site2167]” the “gcPBM binding intensity (ln)” value was 9.52. “TCTATGCGTTTTAATAGTACATATAAAATTTATACA [XGTACX_site6986]” was tested, and the “gcPBM binding intensity (ln)” value was 9.47. With “AAATAAAATATATACATATATATATTATTTAGTAAT [XGTACX_negctrl_site375]” the “gcPBM binding intensity (ln)” value was 9.55. For “AAAAAAAAAAAACACACACACACACTAGTATATAAA [CACACA_site4783]”, the “gcPBM binding intensity (ln)” value was 10.6. “AAGAAAAAAAAAAATATATATACATATATATATATA [TGCATGCA_negctrl_site485]” was tested, and the “gcPBM binding intensity (ln)” value was 9.62. “GGATATAACAAACACACACACACATATATATATATT [CACACA_site4141]” was tested, and the “gcPBM binding intensity (ln)” value was 11.2. In the case of “AATACATATAATACAACACACAAGTAATATAAACCT [CACACA_site3597]”, the “gcPBM binding intensity (ln)” value is reported as 10.2. With “TTTAAATGAAAAAAAGGTACACAATATTATTCTTAT [XGTACX_site8612]” the “gcPBM binding intensity (ln)” value was 9.53. With “AATAAATAAATACATCTCAGTATATAAACAAACAAA [CACACA_negctrl_site1604]” the “gcPBM binding intensity (ln)” value was 9.81. For “ATATTTAATTAAAAGAGTACTTAAATAAAATAAATG [XGTACX_site2149]”, the “gcPBM binding intensity (ln)” value was 9.5. In the case of “AAGCCTTAAAAGGAAAGTACGTATATATATATATAT [XGTACX_site8559]”, the “gcPBM binding intensity (ln)” value is reported as 9.64. In the case of “ATGAAACATGTATATTGTACTCTGGATCAATTTAAT [XGTACX_site6413]”, the “gcPBM binding intensity (ln)” value is reported as 9.72. With “AAATTTATTATATATACATGCAATCATAAATAATGT [TGCATGCA_site539]” the “gcPBM binding intensity (ln)” value was 9.53. With “AATGTATATATATATATATATATATATATTTATTTA [CACACA_negctrl_site113]” the “gcPBM binding intensity (ln)” value was 9.52. “AAGAAAATAGAAAATACACACAGCAAACAGAGGAAT [CACACA_site3785]” was tested, and the “gcPBM binding intensity (ln)” value was 10.3. With “ATATATATATATTTATGTACATATATTTTTTTTTTT [XGTACX_site8558]” the “gcPBM binding intensity (ln)” value was 9.66. With “TGTAGTCTGGAGAAAAGTACACAGTATCCGGTAACT [XGTACX_site4934]” the “gcPBM binding intensity (ln)” value was 9.57. “AATAATAAATCAAACTGTACATATATTTTCAATCTA [XGTACX_site3344]” was tested, and the “gcPBM binding intensity (ln)” value was 9.61. With “TTTTTTTTTTTGTTCACACATATATATATATATATA [CACACA_site5376]” the “gcPBM binding intensity (ln)” value was 9.75. With “TTATAAATAAAAAATACACACATATATTTATTTATA [CACACA_site6242]” the “gcPBM binding intensity (ln)” value was 9.63. With “ATAATATATGAAAGTGGTACACAAAGGAAAATAAAA [XGTACX_site333]” the “gcPBM binding intensity (ln)” value was 9.98. In the case of “GGTTATATATTTTTTGCACACCAAAAAAGAGAATAT [CACACA_site2731]”, the “gcPBM binding intensity (ln)” value is reported as 9.76. In the case of “ATCCTAATATTGAACTGTACCTTATATGTTATTATA [XGTACX_site1014]”, the “gcPBM binding intensity (ln)” value is reported as 9.81. With “ACGTGTATTTATTTAGTGCACTTTATATTTTTTCTT [GTGCAC_site9426]” the “gcPBM binding intensity (ln)” value was 10. “TATATATATATATATACACACATATATACATATATA [CACACA_site4043]” was tested, and the “gcPBM binding intensity (ln)” value was 9.61. In the case of “TTCTTCTAATCCTTTTATCTCATTAAAAAAATATAA [CACACA_negctrl_site12]”, the “gcPBM binding intensity (ln)” value is reported as 9.27. With “TATACATACACATACACACATACACCCATACACATA [CACACA_site1746]” the “gcPBM binding intensity (ln)” value was 10.6. “GAATGAATACGTTTTACACACTTGAATCTAATTTCA [CACACA_site6593]” was tested, and the “gcPBM binding intensity (ln)” value was 9.72. With “ATTCTACTTTTATTTATTTATTTGTTTATATATATA [XGTACX_negctrl_site609]” the “gcPBM binding intensity (ln)” value was 9.99. In the case of “TTTTTTATTCATGTAACACACATTTAATTATGAATT [CACACA_site2706]”, the “gcPBM binding intensity (ln)” value is reported as 9.8. With “ATAAATACATATGTGTGTACACATTATATATATATA [XGTACX_site1486]” the “gcPBM binding intensity (ln)” value was 10.1. “GAAAAATTAAAACCTACACACACATTTAAAAAAAAA [CACACA_site9005]” was tested, and the “gcPBM binding intensity (ln)” value was 11. “TATATATTACATACATGTACCCAAAAAAAAAAAAAA [XGTACX_site1168]” was tested, and the “gcPBM binding intensity (ln)” value was 9.46. For “ATATATATATAATCATCACACATGCAGCCCTGATGA [CACACA_site5500]”, the “gcPBM binding intensity (ln)” value was 9.66. For “TTGCATTAATTTATGTGTACATATAAATTTTTATTT [XGTACX_site3060]”, the “gcPBM binding intensity (ln)” value was 9.89. In the case of “TATAAATATAAATATACACACATATATATATATATA [CACACA_site1678]”, the “gcPBM binding intensity (ln)” value is reported as 9.66. For “CTTATAGGTCATTTCCTTGACCCCCTTTGTTGTACT [CACACA_negctrl_site551]”, the “gcPBM binding intensity (ln)” value was 9.5. “ATCAGTCGGCAGGACAGTACACAGTAGCCAGAAAAT [XGTACX_site2550]” was tested, and the “gcPBM binding intensity (ln)” value was 9.66. With “GTGTAGATATTGAAATGTACTCTCCATATAAAATAA [XGTACX_site4713]” the “gcPBM binding intensity (ln)” value was 9.33. “AAAGAATTTGCATATACACACAAAAAAATATATACA [CACACA_site386]” was tested, and the “gcPBM binding intensity (ln)” value was 10.1. With “TTACGATACTTTAGGTGTACACAAATATACATGAAT [XGTACX_site4322]” the “gcPBM binding intensity (ln)” value was 9.77. In the case of “ATATATATATATATATGTACTTATTTATTTATATTA [XGTACX_site4646]”, the “gcPBM binding intensity (ln)” value is reported as 9.5. “TTTTTTTTTTTTTTATGTACACATCTAAAAAAAAGG [XGTACX_site2067]” was tested, and the “gcPBM binding intensity (ln)” value was 9.18.
